Source: the supplement of paper PMC7826260
Some of the results follow. The data describe in vitro nicking of single-stranded DNA by Rep domains (1 h at 37 °C, 3 µM enzyme); the outer parts of the 90-letter strands are left off. Uncut reads are compared with the no-enzyme pool on a log2 scale; uncut sequences lie near 0, cut ones below; no hit call is given. The scaling is to total reads; values above 0 arise when much of the pool is cut.

Tests used:
Experiment in all cases: uncleaved DNA left, log2 of reads against the no-enzyme library (log2 ratio); higher = less cleavage (more negative = more Rep cleavage of the k-mer); sequences stand for … in CTCGTCCG…ACCGGAGA
[1] = test system: T1, Rep nickase domain of Muscovy duck circovirus
T1 sequence (Rep 1-111, printed without the tag): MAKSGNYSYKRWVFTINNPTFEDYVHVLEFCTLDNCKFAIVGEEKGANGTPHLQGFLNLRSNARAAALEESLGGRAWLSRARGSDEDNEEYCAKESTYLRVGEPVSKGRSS
Description: (§1)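 A pool of 90-nt single-stranded DNAs with seven random bases just before the constant AC of the nick site (name = the seven bases) was cut by 3 µM recombinant His6-SUMO-tagged Rep nickase domain (300 nM DNA, 50 mM HEPES pH 8.0, 50 mM NaCl, 1 mM MnCl2, 1 h, 37 °C, three replicates). Uncut DNA was amplified and sequenced.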

[2] = test system: T2, Rep nickase domain of banana bunchy top virus
T2 sequence (Rep 1-94, printed without the tag): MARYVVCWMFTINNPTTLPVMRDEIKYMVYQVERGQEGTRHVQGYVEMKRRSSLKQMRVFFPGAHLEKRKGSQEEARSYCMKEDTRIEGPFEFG
Description: as §1

[3] = test system: T3, Rep nickase domain of cabbage leaf curl virus
T3 sequence (Rep 1-116, printed without the tag): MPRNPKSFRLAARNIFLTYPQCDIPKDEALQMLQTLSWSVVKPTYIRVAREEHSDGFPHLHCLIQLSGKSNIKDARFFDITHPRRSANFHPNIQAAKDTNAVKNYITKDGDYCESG
Description: as §1

[4] = test system: T4, Rep nickase domain of chickpea chlorotic dwarf virus
T4 sequence (Rep 1-124, printed without the tag): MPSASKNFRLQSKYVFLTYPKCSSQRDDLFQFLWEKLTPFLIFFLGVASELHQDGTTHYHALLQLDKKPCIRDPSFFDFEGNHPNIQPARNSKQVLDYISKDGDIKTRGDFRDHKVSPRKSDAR
Description: as §1

[5] = test system: T5, Rep nickase domain of faba bean necrotic yellows virus
T5 sequence (Rep 1-98, printed without the tag): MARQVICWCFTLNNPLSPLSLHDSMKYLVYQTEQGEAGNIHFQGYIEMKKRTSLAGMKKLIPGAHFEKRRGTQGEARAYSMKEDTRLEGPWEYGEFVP
Description: as §1

[6] = test system: T6, Rep nickase domain of maize striate mosaic virus
T6 sequence (Rep 1-117, printed without the tag): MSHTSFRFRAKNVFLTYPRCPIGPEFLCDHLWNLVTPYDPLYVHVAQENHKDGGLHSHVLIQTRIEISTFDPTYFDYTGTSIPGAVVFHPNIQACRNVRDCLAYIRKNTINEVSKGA
Description: as §1

[7] = test system: T7, Rep nickase domain of porcine circovirus 2
T7 sequence (Rep 2-116, printed without the tag): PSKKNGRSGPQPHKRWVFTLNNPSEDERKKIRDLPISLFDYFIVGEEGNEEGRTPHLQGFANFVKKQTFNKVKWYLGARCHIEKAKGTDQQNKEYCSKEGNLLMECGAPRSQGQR
Description: as §1

[8] = test system: T8, Rep nickase domain of tomato yellow leaf curl virus
T8 sequence (Rep 1-136, printed without the tag): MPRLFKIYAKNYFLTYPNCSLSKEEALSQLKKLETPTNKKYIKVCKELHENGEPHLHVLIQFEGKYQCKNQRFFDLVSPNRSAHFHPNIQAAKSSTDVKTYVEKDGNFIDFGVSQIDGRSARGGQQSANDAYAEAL
Description: as §1

[9] = test system: T9, Rep nickase domain of wheat dwarf virus
T9 sequence (Rep 1-137, printed without the tag): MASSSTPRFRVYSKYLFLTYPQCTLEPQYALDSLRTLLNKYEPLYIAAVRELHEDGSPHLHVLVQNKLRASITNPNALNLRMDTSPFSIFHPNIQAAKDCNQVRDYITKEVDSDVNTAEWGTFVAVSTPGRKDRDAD
Description: as §1

| Sequence | uncleaved DNA left (log2) [1] | uncleaved DNA left (log2) [2] | uncleaved DNA left (log2) [3] | uncleaved DNA left (log2) [4] | uncleaved DNA left (log2) [5] | uncleaved DNA left (log2) [6] | uncleaved DNA left (log2) [7] | uncleaved DNA left (log2) [8] | uncleaved DNA left (log2) [9] |
| --- | --- | --- | --- | --- | --- | --- | --- | --- | --- |
| ATAGCTG | -0.0136 | 0.0947 | 0.377 | 1.74 | 0.0934 | 1.7 | 0.199 | -0.0394 | -0.00608 |
| CCGACGT | 0.0695 | 0.00474 | 0.196 | 0.396 | 0.165 | 0.498 | -0.0184 | 0.03 | 0.0261 |
| CACCTGA | -0.0119 | 0.0249 | 0.0179 | -0.301 | 0.211 | -0.108 | 0.0416 | 0.0151 | 0.104 |
| GTTACCG | -0.0816 | -0.0615 | -0.652 | -1.32 | -0.0879 | -0.752 | 0.0151 | -0.111 | -0.0941 |
| CATAAGC | 0.0242 | 0.00855 | -0.305 | -0.646 | 0.0739 | -1.29 | 0.153 | 0.0317 | 0.0497 |
| GTGGCAC | 0.105 | 0.0932 | 0.348 | 0.836 | -0.136 | 1.93 | 0.0501 | 0.0595 | 0.000969 |
| AAGTAAT | -0.75 | -2.14 | 0.0463 | 0.673 | -1.55 | 1.46 | -3.84 | -0.00272 | 0.0634 |
| GGTCAGC | 0.0354 | 0.152 | 0.811 | 1.98 | -0.0722 | 2.2 | 0.132 | 0.0432 | 0.199 |
| TTGGTAG | 0.0296 | -0.0244 | -0.654 | -0.519 | -0.0188 | -1.15 | 0.0524 | -0.0439 | -0.096 |
| ATCGCAT | 0.165 | -0.0224 | -0.243 | -0.362 | -0.104 | -0.715 | 0.0143 | -0.146 | -0.0963 |
| ATAGGGG | 0.0739 | 0.0838 | 0.322 | 0.777 | 0.191 | 0.352 | 0.359 | -0.0144 | -0.000122 |
| ATTATAA | 0.00824 | -0.0467 | -0.152 | -0.19 | 0.0162 | -0.62 | -0.0827 | 0.0934 | 0.0222 |
| AGCTAGG | 0.193 | 0.202 | 0.0104 | 0.785 | 0.2 | 1.21 | 0.223 | 0.0345 | 0.156 |
| TTCTCTA | -0.0492 | -0.0172 | 0.195 | -0.85 | -0.061 | 0.00209 | -0.242 | -0.0587 | 0.0568 |
| TCTAGTT | 0.0913 | -0.0605 | -0.0634 | -1.84 | 0.0194 | -0.425 | -0.556 | -0.0319 | -0.113 |
| GGCAACT | -0.014 | 0.129 | 0.565 | 0.842 | 0.0511 | 1.86 | 0.123 | 0.0859 | 0.163 |

| Sequence | uncleaved DNA left (log2) [1] | uncleaved DNA left (log2) [2] | uncleaved DNA left (log2) [3] | uncleaved DNA left (log2) [4] | uncleaved DNA left (log2) [5] | uncleaved DNA left (log2) [6] | uncleaved DNA left (log2) [7] | uncleaved DNA left (log2) [8] | uncleaved DNA left (log2) [9] |
| --- | --- | --- | --- | --- | --- | --- | --- | --- | --- |
| ATATATC | 0.0856 | 0.0498 | -0.0181 | 0.0159 | 0.0583 | -0.672 | 0.0114 | 0.043 | 0.0086 |
| AGGAGTA | 0.0803 | -0.072 | 0.172 | 0.296 | 0.0537 | 0.795 | 0.0579 | -0.0529 | -0.0278 |
| TAACACA | 0.0765 | 0.16 | -1.16 | -2.81 | 0.0217 | -0.345 | 0.00239 | 0.0735 | -0.246 |
| TCCTGCC | 0.000111 | -0.144 | -0.3 | -0.638 | -0.0876 | -1.09 | -0.0682 | -0.114 | -0.183 |
| GACACGT | 0.0106 | 0.00891 | 0.0651 | -0.232 | -0.0694 | -0.398 | 0.128 | 0.163 | 0.109 |
| AAATTCT | -4.38 | -0.453 | -4.68 | -3.85 | -0.0932 | -3.9 | -4.55 | -0.414 | -3.99 |
| GCTCTGT | 0.107 | -0.0372 | 0.172 | 0.312 | 0.14 | 0.124 | -0.0135 | -0.0432 | -0.0195 |
| GGGGGGC | 0.0473 | 0.073 | 0.834 | 1.7 | -0.0799 | 2.15 | 0.201 | -0.0391 | 0.12 |
| TGACGGG | -0.184 | -0.0933 | -0.0874 | -0.0925 | -0.15 | -0.28 | 0.0302 | -0.107 | -0.111 |
| TCTTCTC | -0.149 | -0.143 | 0.0106 | -0.234 | 0.012 | -0.467 | -0.172 | 0.00963 | -0.037 |
| CCCATGA | 0.0308 | 0.115 | -0.0841 | 0.0751 | 0.199 | -0.925 | 0.116 | 0.116 | 0.175 |
| GCGTTTT | -1.5 | -0.387 | 0.0116 | -1.06 | -0.327 | 0.0158 | -2.8 | -0.0368 | -0.0993 |
| GGCCAAC | -0.0414 | -0.0105 | 0.454 | 1.21 | -0.0402 | 1.73 | 0.139 | 0.0233 | 0.106 |
| GATTTTC | -0.458 | -0.109 | 0.348 | 0.528 | -0.0603 | 0.904 | -0.413 | 0.0465 | 0.167 |
| AATGGGG | 0.024 | -0.047 | 0.123 | 0.375 | 0.00221 | -0.188 | 0.271 | -0.114 | -0.0754 |
| GGCTAAT | -0.242 | 0.0254 | 0.618 | 1.43 | -0.104 | 1.98 | -2.33 | 0.0756 | 0.0681 |
